Here are results for 167 variants from the RNAGym collection of RNA variant scans (doi:10.1093/nar/gkz1192).

The source gives no read counts; variants with many changes may rest on few reads.

B1: CPEB3 Ribozyme (parent)
chain: UAACAGGGGGCCACAGCAGAAGCGUUCACGUCGCAGCCCCUGUCAGAUUCUGGUGAAUCUGCGAAUUCUGCUGUAUAUCUC

In the data set the parent is B1. Description: self-cleavage, relative activity (ratio to wild type); higher = more cleavage; in vitro, sequencing. The method in brief:
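Barcoded CPEB3 ribozyme mutants, produced by rounds of error-prone PCR, self-cleaved while being transcribed with T7 RNA polymerase for 5 hours at 37°C and during a subsequent 15 min DNase I step before EDTA was added. Sequencing of template-switched cDNA on Illumina gave cleaved and total reads, and DNA sequencing assigned barcodes to variants. Each variant's relative activity is its cleaved/total read fraction divided by the unmutated ribozyme's fraction, averaged across three batches. A variant needed a minimum of 5 reads.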
Regarding A5G A56G U78C, the self-cleavage amounted to 0.41. For A5G G7C A45G U58C A64G, the self-cleavage amounted to 0.05. In the case of A5G G6C C39U A65U it was 0.04.

As for A5G A28G A35U U43A, the self-cleavage worked out at 0.36. On to A5G C11U G24A A45G C68A, for which the self-cleavage worked out at 0.17.

A5G A28G C34U U51A A56U U78C: the self-cleavage turned out to be 0.08. The same measure for A5G G6A A20U A56G U76A A77G: 0.05; for A5G C29U U51C U69C: 0.22. Regarding A5G A47G A56G U69C, the self-cleavage stood at 0.32. The same measure for A5G A35G U72C: 1.18; for A5G G8C A20G U76A: 0.31; for A5G A35G A47G: 1.21. The same measure for A5G C12U U25C U31C U41C U54A U67C: 0.07. In the case of A5G C29U U72A it was 0.27; in that of A5G G7A A20U A57G U72A, 0.09; in that of A5G C17G A57U, 0.7. In the case of A5G A28G C40U U60C, the self-cleavage came out at 0.05. Turning to A5G C40U U43C U49C A75U, the self-cleavage is 0.07.

A5G A21G U41C: the self-cleavage was 0.11. In the case of A5G A45U A57U, the self-cleavage was 0.25. On to A5G G6A U31A, for which the self-cleavage came out at 0.32. Turning to A5G C14U A35G A45U, the self-cleavage came to 0.93.

A5G C32G U49C A64U: the self-cleavage came to 0.09.

As for A5G C12A A15C G24A, the self-cleavage was 0.07. The same measure for A5G C11G A13U A15U G30A A56G A77G: 0.06; for A5G A35U C40U: 0.26; for A5G A28G U74A: 0.63.

On to A5G G8A U54G G73A, for which the self-cleavage amounted to 0.66. In the case of A5G A28U U31C G52A it was 0.16.

With A5G C23G A28G U41C A47U G52A U72C, the self-cleavage turned out to be 0.08.

For the variant A5G A21G C68U U72A U76C, the self-cleavage stood at 0.63. The same measure for A5G C12G A21G A45U: 0.52; for A5G G8A A45G G52U U69A U76C: 0.06; for A5G C12A A21U C32U A47U A57U: 0.06.

In the case of A5G A21G G30A U60A, the self-cleavage was determined as 0.08. The same measure for A5G A21U A35U C68A U80A: 0.38; for A5G A20U A21G A35U A57G U60A: 0.07.

On to A5G G7A U54A A56G, for which the self-cleavage came out at 0.31. With A5G G6A G8U A20G A21G A28U U80C, the self-cleavage was determined as 0.06.

With A5G C12A C29U, the self-cleavage is 0.45.

Regarding A5G A20G A47G G73C, the self-cleavage turned out to be 0.86. With A5G A28G A45G U54A G63C G70A A77G, the self-cleavage was found to be 0.12. Take A5G C14U U51C G52U: the self-cleavage was found to be 0.99. In the case of A5G A56U G73A, the self-cleavage was found to be 0.77. Regarding A5G C11U A13G U26C G36U, the self-cleavage is 0.12. As for A5G A35G U69C, the self-cleavage worked out at 0.71. In the case of A5G A28G U43C U49G U58C it was 0; in that of A5G A21G G53A U72A, 0.25; in that of A5G C39U U66C, 0.45. Consider A5G A21G U54C, for which the self-cleavage came to 0.44. The same measure for A5G C14U U41G U51C U78C: 0.14; for A5G A20G A28G U74A U78C: 0.15. Consider A5G G6A U25C U41C U66C U80G, for which the self-cleavage turned out to be 0.07. In the case of A5G C14A U60C it was 0.38. For the variant A5G A28G A56U U78C, the self-cleavage stood at 0.34.

Turning to A5G A21G U26C U31C A35C U54A U78C, the self-cleavage was determined as 0.12. On to A5G A47G U48C, for which the self-cleavage was 0.38.

In the case of A5G C12U A20G, the self-cleavage turned out to be 0.66. The same measure for A5G A45U U66C U72A: 0.57; for A5G G7U A28U U69C: 0.08.

Consider A5G A57G U69A, for which the self-cleavage is 0.42. A5G A20G U41C: the self-cleavage was found to be 0.2. The same measure for A5G C17U A21G: 0.27; for A5G C17U A21U A28G A75G U78C: 0.16; for A5G A20G C37G A45G G52U G61C: 0.09. On to A5G C17A U41C A64G C71G G73A, for which the self-cleavage came out at 0.3. In the case of A5G A28G U66C U69C U72C C79A U80C it was 0.19. In the case of A5G A45U U49C A64G it was 0.51; in that of A5G A21C U26C A35U U60C A65G U66C, 0.32; in that of A5G C12U A18C U25C U80A, 0.08. A5G C12U U66C: the self-cleavage is 0.19.

Take A5G A64U U72G: the self-cleavage came to 0.41.

Turning to A5G C32U C40U U69A U80C, the self-cleavage came to 0.09. In the case of A5G A20G A47G A56U it was 0.21. The same measure for A5G A20G C62U U66C: 0.37. On to A5G C29U U31A A45U, for which the self-cleavage amounted to 0.16. The same measure for A5G A21G G30C G55A A65G: 0.1. As for A5G G6U A13U U41C, the self-cleavage amounted to 0.66. For the variant A5G A35U U43C U54C G61U, the self-cleavage was 0.21. In the case of A5G A57C U80C it was 0.1; in that of A5G A21G A35U A45G A47G U67C, 0.05; in that of A5G C17G U25C U26C A47G U67C U72G, 0.13. The same measure for A5G C71U A77G: 0.33. Consider A5G G7A A18G C23A U69A U72C U78C, for which the self-cleavage stood at 0.04. The same measure for A5G A20G A64U U67A: 0.33; for A5G C17U A28G G30A A45C: 0.25; for A5G C11A A18U U31C G52A U69A: 0.19. In the case of A5G A28G U51C A56G U74A U80G it was 0.45. The same measure for A5G C32U A45C U58C: 0.21; for A5G A20G U31A: 0.67; for A5G A28U U54A A56G: 0.18.

Consider A5G G8A A21U U51A, for which the self-cleavage turned out to be 0.07. In the case of A5G C23A U43A U80A it was 0.11.

Take A5G C12U U49A: the self-cleavage came to 0.58.

As to A5G A35C U51C, the self-cleavage worked out at 0.55. Turning to A5G C12A A35U C37A A56G U78C, the self-cleavage is 0.17.

Consider A5G A20G U31C A65G U80C, for which the self-cleavage was 0.13.

Consider A5G A21G G22C U25C, for which the self-cleavage stood at 0.17. Consider A5G A20G C34U U72C, for which the self-cleavage was determined as 0.71. Regarding A5G A21U U80C, the self-cleavage was determined as 0.65.

On to A5G C27A G42U, for which the self-cleavage was found to be 0.48. The same measure for A5G C39A C62U G70A U78C: 0.07. In the case of A5G A45C U74C, the self-cleavage worked out at 0.64. As for A5G A21C A45G, the self-cleavage came out at 0.39. With A5G C40U U69A, the self-cleavage was 0.26. As for A5G C50A A65G, the self-cleavage was 0.23. In the case of A5G A28G A77U, the self-cleavage amounted to 0.2. In the case of A5G A35C U51C U74A it was 0.58; in that of A5G A28G U58C U69C, 0.24; in that of A5G G7U A15U A47G A57G C71U, 0.04.

For A5G A20U U26A, the self-cleavage was 0.35. As to A5G A28G U54C G55U C59A, the self-cleavage turned out to be 0.06. The same measure for A5G G7A A21G C40A U66C U78A: 0.05; for A5G A65G U69A U78A: 0.34. Take A5G A21G G33U A35U U60A A64C: the self-cleavage was 0.08. With A5G A21G U48C, the self-cleavage was found to be 0.53. In the case of A5G C11G U41A A64U U69A it was 0.07. In the case of A5G A64G A77U it was 0.64.

For the variant A5G G7U U74C, the self-cleavage worked out at 0.6. In the case of A5G A20G U67A it was 0.24.

On to A5G A20U A28G C40A U54G G55U U58A, for which the self-cleavage stood at 0.07. Consider A5G G7U A20G U31A, for which the self-cleavage is 0.1. For A5G A28C A64U, the self-cleavage is 0.35.

For the variant A5G C32A U69A, the self-cleavage amounted to 0.3. Consider A5G A28G U51A U72C, for which the self-cleavage came to 0.45. In the case of A5G C37A A56G it was 0.2. Turning to A5G C29U A57G, the self-cleavage is 0.32.

As to A5G A35G U60C, the self-cleavage was determined as 0.6. In the case of A5G A21G A35U C37U A56U U60C it was 0.08. The same measure for A5G A65G U69A U72A U78A: 0.13; for A5G C12U A13U A21G U43A: 0.86; for A5G G6U A15G U26A A35U: 0.09.

In the case of A5G C17U A64G U72C, the self-cleavage is 0.36. Consider A5G A21G C23A A47G C50U U60C, for which the self-cleavage was 0.2. The same measure for A5G A21U U72A: 0.39; for A5G G6C C23G U25C U49A: 0.39. The same measure for A5G A45U U60C: 0.28; for A5G C12A U67A U72C U76C U80C: 0.19; for A5G A35U U69A: 0.07. For A5G A45U A65U, the self-cleavage was 0.23.

Turning to A5G C38U U51C U54C, the self-cleavage was 0.18. In the case of A5G C12A A75G it was 1.02; in that of A5G C11A A21G U31C A45G, 0.06. As for A5G G7U G9A A20G C71A U72C, the self-cleavage amounted to 0.06. With A5G A35G A47G A56G, the self-cleavage was found to be 1.08. In the case of A5G C17U C40G U60A A64G it was 0.22. In the case of A5G C23U A64G, the self-cleavage was found to be 0.25. Regarding A5G G8A U43A, the self-cleavage is 0.4. In the case of A5G C38U U41C U51A it was 0.68; in that of A5G G8A A15U A45U, 0.34; in that of A5G C23U U49C U51A A64G, 0.11. With A5G A57U U80C, the self-cleavage is 0.61. The same measure for A5G A21G U26C A35U U54C: 0.55; for A5G G8A A13U U31A U43A: 0.12. As to A5G C11G A18G U43A U66C U72C, the self-cleavage is 0.09. The same measure for A5G A35G C68U U74C: 1.22; for A5G A47G U49C C68U: 0.04; for A5G A20G C27U U31C G63A: 0.25. For A5G A21G G33C U41A U43G U72A U78C, the self-cleavage was 0.04.

Turning to A5G A28G A64G U69G, the self-cleavage came to 0.22. In the case of A5G C11U A45G U72C, the self-cleavage worked out at 0.39. A5G C23U G53A U76C: the self-cleavage is 0.16.

Turning to A5G A47G U54C U58C C59G, the self-cleavage was 0.29.

As for A5G C34G U43C A45G U54C U74C, the self-cleavage was 0.09.

As for A5G C44G C62G, the self-cleavage is 0.29. With A5G A20G U25C A35G, the self-cleavage was determined as 0.37. As for A5G A21G A47G U74C, the self-cleavage came to 0.77.
